{
  "source": "PubChem BioAssay (NCATS)",
  "note": "This list was built around the results that the source calls inconclusive (neither active nor inactive); the mix of calls is not that of the screen. Where the call is inconclusive, the potency comes from a doubtful curve fit. Calls of active or inactive are those of the source. The call rests on the fitted dose curve; in most records, active means well fitted inhibition curve with a large enough effect; inconclusive means small, poorly fitted or top-dose-only effect; inactive means flat fitted curve, though single readings scatter. Numbered stars: 1 amine (or outer) side, 2 acyl side, 3 side chain; on linkers, the order of the positions; unused ones are H or OH. Square brackets hold non-standard residues; d marks the D form. Peptide text beside a SMILES is read from it. X9 = O=C([C@@H](CC(O)CCl)O[*:1])[*:2]; X3 = CC(CC(O[*:1])C(=O)[*:2])C(=O)O; aIle = CC[C@@H](C)[C@H](N)C(=O)O; NMeV = CN[CH](C(=O)O)C(C)C; NMeA = CN[CH](C)C(=O)O; βAla = NCCC(=O)O",
  "data": [
    {"system": "HEK293", "experiment": "Cytotoxic Profiling of Annotated Libraries Using Quantitative High-Throughput Screening (AID 1296008); further: nearly all actives have a fitted effect of over 60% in size; further: potency means the concentration at half of the fitted maximal effect; tags describe the fitted curve by direction and shape; on max response: on the % scale 0 is the no-effect control and ±100 the full control effect", "details": "Five cell lines viability, CellTiter-Glo ATP luminescence, 48-72 h; max response: hits give low values", "summary_of_the_method": "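Compounds were pin-transferred onto cells and incubated 48 or 72 hr at 37 degree Celsius, 95% humidity. CellTiter-Glo was added, plates sat 10 min at room temperature, then ATP-coupled luminescence was imaged as the viability read-out.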", "values": [
      {"smiles": "C[C@@H]1CC2=CC(=O)CC[C@@H]2[C@H]2CC[C@@]3(C)[C@@H](CC[C@]3(C)O)[C@@H]21", "Potency": "inconclusive: 29.9 µM [inhibitor, single point]"},
      {"smiles": "CN1C(=O)N(c2ccc(C#N)c(C(F)(F)F)c2)C(=O)[C@@]1(CO)c1ccccc1", "Potency": "inconclusive: 23.1 µM [inhibitor, single point]"},
      {"smiles": "Cc1cccc(Cc2cnc[nH]2)c1C", "Potency": "inconclusive: 21.1 µM [inhibitor, partial curve, poor fit]"},
      {"smiles": "CCC1CN2CCC3(C(=O)Nc4cccc(O)c43)C2CC1/C(=C/OC)C(=O)OC", "note": "(stereo not given)", "Potency": "inconclusive: 2.52 µM [inhibitor, single point]"},
      {"smiles": "CCN(CC)Cc1nccn1-c1ccc([N+](=O)[O-])cc1C(=O)c1ccccc1Cl", "Potency": "inconclusive: 33.5 µM [inhibitor, single point]"},
      {"smiles": "CCCCCCCCCCCCCCCC[N+](C)(C)C", "Potency": "active: 5.96 µM"},
      {"smiles": "OC(c1ccccc1)(c1ccccc1)C1CCNCC1", "Potency": "inconclusive: 23.7 µM [inhibitor, single point]"},
      {"smiles": "C[C@H]1CN(CC[C@H](O)C2CCCCC2)CC[C@@]1(C)c1cccc(O)c1", "Potency": "inconclusive: 29.1 µM [inhibitor, single point]"},
      {"smiles": "CCC1CC2CN3CCc4c([nH]c5ccccc45)C(C(=O)OC)(C2)C13", "note": "(stereo not given)", "Potency": "inconclusive: 20.2 µM [inhibitor, single point]"},
      {"smiles": "C[C@@H](CN1CCC(n2c(=O)[nH]c3cc(Br)ccc32)CC1)NC(=O)[C@@H]1C[C@H]1c1ccccc1", "Potency": "inconclusive: 25.9 µM [inhibitor, partial curve, poor fit]"},
      {"smiles": "CN=C(NS(=O)(=O)c1ccc(Cl)cc1)N1C[C@H](c2ccccc2)C(c2ccc(Cl)cc2)=N1", "Potency": "inconclusive: 16.4 µM [inhibitor, single point]"},
      {"smiles": "Nc1ccc([As](=O)(O)O)cc1", "max response": "inactive: -6.15%"},
      {"smiles": "O=[N+]([O-])c1ccc([As](=O)(O)O)cc1", "outcome": "inactive"},
      {"smiles": "Cc1cccc(NC(=O)NC2N=C(c3ccccc3)c3ccccc3N(CC(=O)c3ccccc3C)C2=O)c1", "note": "(stereo not given)", "Potency": "inconclusive: 23.1 µM [inhibitor, single point]"},
      {"smiles": "COc1ccc2[nH]c(-c3ccccc3)c(CCN(C)C)c2c1", "Potency": "inconclusive: 29.1 µM [inhibitor, single point]"},
      {"smiles": "CCC(C)C1NC(=O)C2CCCN2C(=O)C(CC(C)C(=O)O)OC(=O)CCNC(=O)C(C)N(C)C(=O)C(C(C)C)N(C)C1=O", "note": "(stereo not given) (cyclo([X3]PI[NMeV][NMeA][βAla]); configuration not given here)", "Potency": "inconclusive: 1.93 µM [inhibitor, single point]"},
      {"smiles": "O=C(N[C@H]1N=C(c2ccccc2F)c2cccc3c2N(CC3)C1=O)c1cc2ccccc2[nH]1", "max response": "inactive: -7.34%"},
      {"smiles": "O=C(Nc1ccccc1-c1ccc(Cl)cc1)c1cccnc1Cl", "Potency": "inconclusive: 48.6 µM [inhibitor, single point]"},
      {"smiles": "COC(=O)C1(C)CCC(O)C2(C)c3c(O)cc(C(C)C)cc3C(O)C(OC(C)=O)C12", "note": "(stereo not given)", "outcome": "inactive"},
      {"smiles": "CC1=NN=C(c2ccc(N)cc2)c2cc3c(cc2C1)OCO3", "max response": "inactive: 3.46%"},
      {"smiles": "CCN(CC)C(=O)N[C@@H]1C=C2c3cccc4[nH]cc(c34)C[C@@H]2N(C)C1", "max response": "inactive: -11.8%"},
      {"smiles": "O=C(O)c1ccnc2cc(C(OCCN3CCCCC3)c3ccccc3Cl)[nH]c12", "note": "(stereo not given)", "outcome": "inactive"},
      {"smiles": "O=C(N[C@@H]1N=C(c2ccccc2F)c2cccc3c2N(CC3)C1=O)c1cc2ccccc2[nH]1", "Potency": "inconclusive: 6.11 µM [inhibitor, single point]"},
      {"smiles": "C[C@H]1O[C@@H](n2cnc3c(N)ncnc32)C[C@@H]1O", "max response": "inactive: 0.909%"},
      {"smiles": "CC12Cc3cn[nH]c3C=C1CCC1C2CCC2(C)C1CCC2(C)O", "note": "(stereo not given)", "Potency": "inconclusive: 29.1 µM [inhibitor, single point]"},
      {"smiles": "Cc1cccc(NC(=O)c2ccc(C(F)(F)F)cc2C(=O)O)n1", "Potency": "inconclusive: 29.1 µM [inhibitor, single point]"},
      {"smiles": "C[C@]12CCC(=O)C(O)=C1CC[C@@H]1[C@@H]2CC[C@]2(C)C(=O)CC[C@@H]12", "Potency": "inconclusive: 18.8 µM [inhibitor, partial curve]"},
      {"smiles": "CO[C@H]1[C@H](O)[C@H](O[C@H]2CC[C@]3(C)C4CC[C@]5(C)[C@H](C6=CC(=O)OC6)CC[C@]5(O)C4CC[C@@H]3C2)O[C@@H](C)[C@@H]1O", "note": "(stereo not given in full)", "Potency": "active: 0.0224 µM"},
      {"smiles": "CC[C@@H](C)[C@@H]1NC(=O)[C@@H]2CCCN2C(=O)[C@@H](CC(O)CCl)OC(=O)CCNC(=O)[C@H](C)N(C)C(=O)[C@H](C(C)C)N(C)C1=O", "note": "(stereo not given in full) (cyclo([NMeA][βAla][X9]P[aIle][NMeV]))", "Potency": "active: 0.685 µM"},
      {"smiles": "CCc1c(C(=O)C(N)=O)c2c(OCC(=O)O)cccc2n1Cc1ccccc1", "Potency": "inconclusive: 9.35 µM [inhibitor, single point]"},
      {"smiles": "CC(C)=C[C@@H]1[C@@H](C(=O)OCc2coc(Cc3ccccc3)c2)C1(C)C", "Potency": "inconclusive: 21.1 µM [inhibitor, single point]"},
      {"smiles": "COc1cc(CCN)cc(OC)c1OC", "max response": "inactive: -9.62%"},
      {"smiles": "CCCCN1[C@@H]2CC[C@H]1CC(OC(c1ccc(F)cc1)c1ccc(F)cc1)C2", "note": "(stereo not given in full)", "Potency": "active: 23.1 µM"},
      {"smiles": "CCOC(=O)C1(CCc2ccccc2)CCN(Cc2ccc(NC(C)=O)cc2)CC1", "Potency": "inconclusive: 29.1 µM [inhibitor, single point]"},
      {"smiles": "COC1C(O)C(OC2CCC3(C=O)C(CCC4C3CCC3(C)C(C5=CC(=O)OC5)CCC43O)C2)OC(C)C1OC1OC(CO)C(O)C(O)C1O", "note": "(stereo not given)", "Potency": "active: 0.243 µM"},
      {"smiles": "CO[C@H]1[C@H](O)[C@H](O[C@H]2CC[C@]3(C=O)C4CC[C@]5(C)[C@H](C6=CC(=O)OC6)CC[C@]5(O)C4CC[C@@H]3C2)O[C@@H](C)[C@@H]1O", "note": "(stereo not given in full)", "Potency": "active: 0.0502 µM"},
      {"smiles": "C/C=C(\\C)C(=O)OC1C2C3(C)CCC(OC4CC(OC)C(OC5OC(C)C(O)C(OC)C5O)C(C)O4)CC3CCC23OC32CCC(C(C)=O)C2(C)C1OC(=O)/C(C)=C/C", "note": "(stereo not given)", "Potency": "inconclusive: 6.93 µM [inhibitor, single point]"},
      {"smiles": "COc1ccccc1CN[C@H]1C2CCN(CC2)[C@H]1C(c1ccccc1)c1ccccc1", "max response": "inactive: -17%"},
      {"smiles": "CN1CCC(N(Cc2ccccc2)c2ccccc2)CC1", "Potency": "inconclusive: 33.5 µM [inhibitor, single point]"},
      {"smiles": "CC(C)(C)NCC(O)c1cc(Cl)c(N)c(C(F)(F)F)c1", "note": "(stereo not given)", "outcome": "inactive"}
    ]}
  ]
}
